Laboratory results from publication PMC10163088.
Results are given in words; binding and its absence hold for the method and conditions named. In cells and extracts the contact can be indirect. Some binding calls cover weakened binding; strength is not graded here. Tags and fused reporters may be left off the sequences shown.

Sequences of proteins named here, by UniProt entry; tags and fusion partners are left off.
UniProt P22579: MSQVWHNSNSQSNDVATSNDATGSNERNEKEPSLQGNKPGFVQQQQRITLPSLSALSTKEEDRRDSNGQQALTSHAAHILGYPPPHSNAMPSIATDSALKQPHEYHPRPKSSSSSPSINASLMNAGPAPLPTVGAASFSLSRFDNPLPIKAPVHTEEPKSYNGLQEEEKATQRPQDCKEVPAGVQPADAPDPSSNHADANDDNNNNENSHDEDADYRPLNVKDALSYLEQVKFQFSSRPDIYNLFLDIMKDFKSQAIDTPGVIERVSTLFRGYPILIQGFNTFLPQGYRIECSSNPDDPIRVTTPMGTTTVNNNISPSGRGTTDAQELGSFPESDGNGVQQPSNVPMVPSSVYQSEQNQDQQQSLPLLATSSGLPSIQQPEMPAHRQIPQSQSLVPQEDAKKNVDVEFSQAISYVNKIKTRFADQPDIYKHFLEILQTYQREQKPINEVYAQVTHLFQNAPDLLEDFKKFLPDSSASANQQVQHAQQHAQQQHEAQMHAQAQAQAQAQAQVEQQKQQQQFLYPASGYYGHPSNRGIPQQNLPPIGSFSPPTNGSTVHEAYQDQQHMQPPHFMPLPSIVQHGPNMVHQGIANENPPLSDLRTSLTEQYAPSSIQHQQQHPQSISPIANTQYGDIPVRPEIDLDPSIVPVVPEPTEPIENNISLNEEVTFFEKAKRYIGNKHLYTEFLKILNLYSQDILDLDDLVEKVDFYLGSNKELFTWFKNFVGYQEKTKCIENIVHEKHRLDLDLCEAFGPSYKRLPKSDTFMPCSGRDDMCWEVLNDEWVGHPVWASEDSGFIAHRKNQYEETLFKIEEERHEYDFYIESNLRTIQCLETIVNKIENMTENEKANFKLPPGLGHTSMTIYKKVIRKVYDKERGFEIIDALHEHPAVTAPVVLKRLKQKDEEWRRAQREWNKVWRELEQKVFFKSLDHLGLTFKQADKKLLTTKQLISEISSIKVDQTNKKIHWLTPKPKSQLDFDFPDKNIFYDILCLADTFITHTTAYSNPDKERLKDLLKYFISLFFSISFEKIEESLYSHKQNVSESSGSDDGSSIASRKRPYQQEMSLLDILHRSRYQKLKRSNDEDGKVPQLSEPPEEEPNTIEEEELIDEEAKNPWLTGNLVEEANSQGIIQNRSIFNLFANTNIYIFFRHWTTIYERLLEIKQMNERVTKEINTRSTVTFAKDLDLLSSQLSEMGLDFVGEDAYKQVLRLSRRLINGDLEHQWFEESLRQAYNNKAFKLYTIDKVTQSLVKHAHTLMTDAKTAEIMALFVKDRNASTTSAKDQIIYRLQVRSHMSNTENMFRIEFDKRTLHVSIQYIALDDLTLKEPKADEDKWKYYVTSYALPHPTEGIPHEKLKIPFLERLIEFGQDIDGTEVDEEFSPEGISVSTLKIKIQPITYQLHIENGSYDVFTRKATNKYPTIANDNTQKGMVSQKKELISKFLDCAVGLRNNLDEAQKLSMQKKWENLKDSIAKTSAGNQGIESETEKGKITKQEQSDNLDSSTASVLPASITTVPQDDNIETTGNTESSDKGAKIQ

What was measured:
Experiment in all cases: pull-down; GST fusions of repressors (full-length or length variants) immobilised on GSH sepharose, incubated with bacterial total protein extracts containing HA-tagged Sin3, Cyc8 or Tup1 (or Tup1 length variants); elution with free GSH, anti-HA blot (Figs. 1, 3, 4, 5); only the target purified
[1] = biological target: T1, GST-Fkh1 (full-length) (S. cerevisiae) (UniProt P40466)
T1 sequence: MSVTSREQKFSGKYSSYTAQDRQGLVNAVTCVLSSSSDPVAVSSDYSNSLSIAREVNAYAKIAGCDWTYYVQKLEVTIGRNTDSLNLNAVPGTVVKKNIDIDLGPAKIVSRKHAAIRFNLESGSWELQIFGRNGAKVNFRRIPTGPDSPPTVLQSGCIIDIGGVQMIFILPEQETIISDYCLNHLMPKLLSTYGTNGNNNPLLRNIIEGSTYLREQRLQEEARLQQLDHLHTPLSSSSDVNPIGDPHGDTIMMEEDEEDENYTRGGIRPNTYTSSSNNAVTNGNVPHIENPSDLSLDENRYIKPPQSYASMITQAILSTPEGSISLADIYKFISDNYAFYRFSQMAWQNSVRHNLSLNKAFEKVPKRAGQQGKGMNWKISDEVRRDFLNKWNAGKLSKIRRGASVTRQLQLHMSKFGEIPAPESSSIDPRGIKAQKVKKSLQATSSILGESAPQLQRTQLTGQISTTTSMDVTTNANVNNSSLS

[2] = biological target: T2, GST-Opi1 (full-length) (S. cerevisiae) (UniProt P21957)
T2 sequence: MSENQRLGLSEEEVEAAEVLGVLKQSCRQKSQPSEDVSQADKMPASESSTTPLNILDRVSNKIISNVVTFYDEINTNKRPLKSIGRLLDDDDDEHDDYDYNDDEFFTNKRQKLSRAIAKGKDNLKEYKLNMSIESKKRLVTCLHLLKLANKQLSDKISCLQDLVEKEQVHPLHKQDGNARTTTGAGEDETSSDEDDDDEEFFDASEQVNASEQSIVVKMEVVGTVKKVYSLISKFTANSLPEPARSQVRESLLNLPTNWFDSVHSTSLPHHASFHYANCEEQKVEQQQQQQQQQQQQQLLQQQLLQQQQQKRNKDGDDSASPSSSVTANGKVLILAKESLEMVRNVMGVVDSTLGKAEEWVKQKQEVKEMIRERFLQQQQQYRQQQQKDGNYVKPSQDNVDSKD

[3] = biological target: T3, GST-Whi5 (full-length) (S. cerevisiae) (UniProt Q12416)
T3 sequence: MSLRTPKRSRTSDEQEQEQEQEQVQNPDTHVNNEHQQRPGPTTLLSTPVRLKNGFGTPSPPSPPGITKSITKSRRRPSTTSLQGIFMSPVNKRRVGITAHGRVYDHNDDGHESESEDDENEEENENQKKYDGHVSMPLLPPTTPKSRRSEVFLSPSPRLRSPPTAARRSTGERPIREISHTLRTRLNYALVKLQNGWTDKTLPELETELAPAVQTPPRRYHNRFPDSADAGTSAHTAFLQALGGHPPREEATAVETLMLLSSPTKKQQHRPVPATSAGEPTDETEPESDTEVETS

binding [1]: binds
binding [2]: binds
binding [3]: binds
Substance: HA3-Sin3 (full-length, aa 1-1536; pSW11) (from UniProt P22579 1-1536)
